Experimental data from patent publication US9890133B2 (priority 2011, dated 2018).

How the values were obtained:
Coxsackie B1 = assay: organism not typed; details: read-out: Coxsackie B1 EC50
Coxsackie B3 = assay: microbe, parasite or virus in culture; details: Enterovirus B, B3, read-out: Coxsackie B3 EC50

Row | Compound | EC50 (Coxsackie B1) [µg/mL] | EC50 (Coxsackie B3) [µg/mL]
1 | CC(C)c1ccc2c(c1)OC1(O)c3ccc([N+](=O)[O-])c(N)c3C(=O)C21O (stereo not drawn) [Example 60, 1-Amino-4b,9b-dihydroxy-7-isopropyl-2-nitro-4bH-indeno[1,2-b]benzofuran-10(9bH)-one] | < 0.01 | < 0.01
2 | CC(C)c1ccc2c(c1)OC1(O)c3c(N)ccc(N)c3C(=O)C21O (stereo not drawn) [Example 61, 1,4-diamino-4b,9b-dihydroxy-7-isopropyl-4bH-benzo[d]indeno[1,2-b]furan-10(9bH)-one] | < 0.01 | < 0.01
3 | CC(C)c1ccc2c(c1)OC1(O)c3ccc(N)c(N)c3C(=O)C21O (stereo not drawn) [Example 62, 1,2-Diamino-4b,9b-dihydroxy-7-isopropyl-4bH-indeno[1,2-b]benzofuran-10(9bH)-one] | < 0.01 | < 0.01
4 | CC(C)c1cc(C(C)C)c2c(c1)C1(O)C(=O)c3ccccc3C1(O)O2 (stereo not drawn) [Example 64, 4b,9b-Dihydroxy-6,8-diisopropyl-4b,9b-dihydro-5-oxa-indeno[2,1-a]inden-10-one] | < 0.01 | < 0.01
5 | CC(C)c1ccc2c(c1)OC1(O)c3ccccc3C(=O)C21N (stereo not drawn) [Example 65, 9b-Amino-4b-hydroxy-7-isopropyl-4b,9b-dihydro-5-oxa-indeno[2,1-a]inden-10-one] | < 0.01 | 0.015 (≈ 0.0508 µM)
6 | CC(=O)NC12C(=O)c3ccccc3C1(O)Oc1cc(C(C)C)ccc12 (stereo not drawn) [Example 66, N-(4b-Hydroxy-7-isopropyl-10-oxo-4b,10-dihydro-5-oxa-indeno[2,1-a]inden-9b-yl)-acetamide] | < 0.01 | < 0.01
7 | CC(C)c1cc(C(C)C)c2c(c1)C1(N)C(=O)c3ccccc3C1(O)O2 (stereo not drawn) [Example 68, 9b-Amino-4b-hydroxy-6,8-diisopropyl-4b,9b-dihydro-5-oxa-indeno[2,1-a]inden-10-one] | < 0.01 | < 0.01
8 | CC(=O)Nc1cccc2c1C(=O)[C@@]1(NC(C)=O)c3ccc(C(C)C)cc3O[C@@]21O [Example 87, N,N′-((4bS,9bS)-4b-Hydroxy-7-isopropyl-10-oxo-9b,10-dihydro-4bH-benzo[d]indeno[1,2-b]furane-1,9b-diyl)diacetamide] | < 0.01 | < 0.01
9 | CCCC(=O)NC12C(=O)c3ccccc3C1(OC(=O)CCC)Oc1cc(C(C)C)ccc12 (stereo not drawn) [Example 89, Butyric acid 9b-butyrylamino-7-isopropyl-10-oxo-9b,10-dihydro-5-oxa-indeno[2,1-a]inden-4b-yl ester] | < 0.01 | < 0.01
10 | CCCCCCCC(=O)NC12C(=O)c3ccccc3C1(O)Oc1cc(C(C)C)ccc12 (stereo not drawn) [Example 90] | < 0.01 | < 0.01
11 | CO[C@@]12C(=O)c3ccccc3[C@]1(O)Oc1cc(C(C)C)ccc12 [Example 98, (4bS,9bS)-4b-Hydroxy-7-isopropyl-9b-methoxy-4bH-indeno[1,2-b]benzofuran-10(9bH)-one] | < 0.01 | 0.022 (≈ 0.0709 µM)
12 | CCC(=O)N1c2cc(C)c(C)cc2C2(O)C(=O)c3ccccc3C12O (stereo not drawn) [Example 105, 4b,9b-Dihydroxy-7,8-dimethyl-5-propionyl-4b,5-dihydroindeno[1,2-b]indol-10(9bH)-one] | 0.018 (≈ 0.0534 µM) | 0.016 (≈ 0.0474 µM)
13 | COC(=O)OC12Oc3cc(C(C)C)ccc3C1(NC(C)=O)C(=O)c1ccccc12 (stereo not drawn) [Example 111, 9b-Acetamido-7-isopropyl-10-oxo-9b,10-dihydro-4bH-indeno[1,2-b]benzofuran-4b-yl methyl carbonate] | < 0.01 | < 0.01
14 | CCCCC(=O)OC12Oc3cc(C(C)C)ccc3C1(NC(C)=O)C(=O)c1ccccc12 (stereo not drawn) [Example 112, 9b-Acetamido-7-isopropyl-10-oxo-9b,10-dihydro-4bH-indeno[1,2-b]benzofuran-4b-yl pentanoate] | < 0.01 | < 0.01
15 | CCOC(=O)OC12Oc3cc(C(C)C)ccc3C1(NC(C)=O)C(=O)c1ccccc12 (stereo not drawn) [Example 116, 9b-Acetamido-7-isopropyl-10-oxo-9b,10-dihydro-4bH-benzo[d]indeno[1,2-b]furan-4b-yl ethyl carbonate] | < 0.01 | < 0.01

In brackets after ≈: the same amount, converted by molar mass.
